# Assay results from PubChem BioAssay AID624417 (National Center for Advancing Translational Sciences (NCATS), 2012).
# “And” between values parts separate entries of the source, which are not always exact repeats. Equal values may be shown once. Hit rate of the full screen: of about 410,000 compounds, about 6,400 (1.6%) were called active. Inconclusive means that the source gave no clear call. Such entries were picked first, then a sample of the others. The call rests on the fitted dose curve; in most records, active means well fitted inhibition curve with a large enough effect; inconclusive means small, poorly fitted or top-dose-only effect; inactive means no such curve, though single readings can be large or run the other way. Potencies of inconclusive entries are doubtful fits and often do not repeat.
# Molecular target: Glucagon-like peptide 1 receptor (Homo sapiens) (UniProt P43220)
# Sequence of UniProt P43220 (P43220 whole entry, looked up): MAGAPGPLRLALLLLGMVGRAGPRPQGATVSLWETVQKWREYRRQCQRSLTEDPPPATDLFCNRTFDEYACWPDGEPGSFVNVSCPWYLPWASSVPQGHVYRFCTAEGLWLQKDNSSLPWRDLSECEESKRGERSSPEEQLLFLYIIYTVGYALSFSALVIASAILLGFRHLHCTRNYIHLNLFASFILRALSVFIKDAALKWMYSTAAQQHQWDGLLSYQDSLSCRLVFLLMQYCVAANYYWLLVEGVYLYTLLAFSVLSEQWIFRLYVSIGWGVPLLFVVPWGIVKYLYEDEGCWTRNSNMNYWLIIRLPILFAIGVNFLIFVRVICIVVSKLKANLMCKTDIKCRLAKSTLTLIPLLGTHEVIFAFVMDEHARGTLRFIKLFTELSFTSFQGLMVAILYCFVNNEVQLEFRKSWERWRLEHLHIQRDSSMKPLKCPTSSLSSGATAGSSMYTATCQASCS
# Assay: qHTS of GLP-1 Receptor Inverse Agonists (Inhibition Mode); further: nearly all actives have a fitted effect of over 55% in size
# Details: HEK293 GLP-1R CRE-luciferase, luminescence, 24 h, GLP-1R form is constitutively active; activity change, negative = inhibition: at 38.3 µM (top of the series) unless noted
# Method in brief: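 Luminescence readout: a drop in cAMP-driven luciferase signal flags inverse agonism at a constitutively active GLP-1R stably expressed in HEK293. Compound exposure lasted 24 hr at 37 deg C, 5% CO2.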
# On the % scale 0 is the no-effect control and ±100 the full control effect; potency means the concentration at half of the fitted maximal effect; tags describe the fitted curve by direction and shape.
Compound,Potency,"activity change, negative = inhibition"
CCC(C)(C)NC(=O)C(c1cccn1C)N(Cc1ccc(OC)cc1)C(=O)Cn1nnc2ccccc21 (stereo unspecified),"inconclusive: 1 µM [inhibitor, full curve, poor fit]",–
CCOc1ccc(Cc2onc3c2C(=O)CC(C)(C)C3)cc1OCC,"inconclusive: 12.6 µM [inhibitor, single point]",–
COc1ccc(Cl)cc1NC(=O)CNc1ccccc1F,"inconclusive: 14.1 µM [inhibitor, single point]",–
COc1ccc2c(c1)N(S(=O)(=O)c1ccccc1)CCC2=O,–,inactive: -4.03%
CCOC(=O)c1c(CC(C)C)csc1N,"inconclusive: 22.4 µM [inhibitor, single point]",–
Cc1cc(Cl)c2oc(C(=O)N3CCN(c4cccc(C)n4)CC3)c(C)c2c1,"inconclusive: 28.2 µM [inhibitor, single point]",–
Cc1ccccc1OCCSc1nc2ccc(NC(=O)c3cccc(F)c3)cc2s1,"inconclusive: 12.6 µM [inhibitor, single point]",–
Cc1cc(C(=O)CSc2nnc(-c3ccc(F)cc3)o2)c(C)n1CC1CCCO1 (stereo unspecified),"inconclusive: 14.1 µM [inhibitor, partial curve, poor fit]",–
N#Cc1cccc2c1-c1ccccc1/C2=N/NC(N)=S,–,inconclusive: -94.7% [inhibitor]
Cc1cc(C)cc(-n2ccnc2SCC(=O)O)c1,–,inactive: 3.38% [at 0.307 µM]
CCN1CCN(Cc2ccc(NC(=O)Nc3cccs3)cc2)CC1,"inconclusive: 31.6 µM [inhibitor, partial curve, poor fit]",–
COc1ccc(OCC(=O)NC2CCCc3ccccc32)cc1 (stereo unspecified),"inconclusive: 28.2 µM [inhibitor, single point]",–
Cc1cc2n(c(=O)c1C#N)CCCN2c1ccccc1,–,inactive: -1.94%
COCCNC(=O)c1cccc(OC2CCN(Cc3ccc(C(C)C)cc3)CC2)c1,"inconclusive: 12.6 µM [inhibitor, single point]",–
CCN1Cc2c(/C=C/c3ccccc3)nc3ccc(OC)cc3c2N(c2cccc(Cl)c2)C1,"inconclusive: 28.2 µM [inhibitor, single point]",–
CCC1(c2ccc(F)cc2)NC(=O)N(CC(=O)N2CCc3ccccc3C2)C1=O (stereo unspecified),"inconclusive: 15.8 µM [inhibitor, single point]",–
Oc1ccc(Cl)cc1-c1cc(-c2ccco2)[nH]n1,active: 10 µM,–
O=C(COC(=O)/C=C/c1ccccc1)NC(=O)NCc1ccccc1,"inconclusive: 31.6 µM [inhibitor, single point]",–
COc1ccccc1OCCNC(=O)c1c(-c2ccccc2Cl)noc1C,"inconclusive: 7.08 µM [inhibitor, single point]",–
C/C(=N/NC(=S)Nc1ccccc1)c1ccc2c(c1)OCO2,active: 3.16 µM,–
O=C(O)CC1(c2ccc(F)cc2)C2CC3CC(C2)CC1C3 (stereo unspecified),"inconclusive: 3.16 µM [inhibitor, partial curve, poor fit]",–
COc1ccc(N2CCN(Cc3nc(Cc4cccc(F)c4)no3)C(C)C2)cc1 (stereo unspecified),active: 5.62 µM,–

Compound,Potency,"activity change, negative = inhibition"
CC(OC(=O)Nc1cccc(Cl)c1)C(=O)OC1CCCCC1 (stereo unspecified),–,inactive: 2.82%
CCN(c1ccccc1)c1nc(C#N)nc(N(CC)c2ccccc2)n1,"inconclusive: 12.6 µM [inhibitor, partial curve, poor fit]",–
CCOC(=O)N1CCN(CCC(=O)Nc2cc([N+](=O)[O-])ccc2OC)CC1,"inconclusive: 28.2 µM [inhibitor, single point]",–
CCOc1ccc(-n2c(Cc3ccccc3)nnc2SCc2c(C)noc2C)cc1,"inconclusive: 22.4 µM [inhibitor, single point]",–
O=C(NCCNc1ccc([N+](=O)[O-])cc1)c1ccc(Cl)cc1,"inconclusive: 14.1 µM [inhibitor, single point]",–
O=C(CN1CCSC1=NCc1ccccc1)c1ccc(Cl)cc1,"inconclusive: 17.8 µM [inhibitor, single point]",–
CCC1=[N+](CC(=O)c2ccc(C)cc2)CCn2cccc21,"inconclusive: 31.6 µM [inhibitor, single point]",–
CCCCC(C(=O)NC(C)c1ccccc1)C(=O)NC(C)c1ccccc1 (stereo unspecified),–,inconclusive: -49.4% [inhibitor]
Nc1nc2n(n1)C(c1cccc(Br)c1)CC(c1ccc(F)cc1)N2 (stereo unspecified),"inconclusive: 28.2 µM [inhibitor, single point]",–
Cc1ccc(CN2C(=O)c3ccccc3Sc3ccc(C(=O)NCCN4CCOCC4)cc32)cc1,active: 6.31 µM,–
Cc1ccc(-c2cc3ccccc3nc2N2CCCC2)cc1,"inconclusive: 8.91 µM [inhibitor, partial curve, poor fit]",–
Cc1cc(C)c2ccc(NN)nc2c1O,"inconclusive: 28.2 µM [inhibitor, single point]",–
CC(C)Oc1ccc(CNC(=O)CCCN2C(=O)C(c3ccccc3)Oc3cccnc32)cc1 (stereo unspecified),"inconclusive: 2 µM [inhibitor, partial curve, poor fit]",–
COc1ccc(-c2nc3sc(CCNC(=O)C(=O)Nc4cccc(NC(C)=O)c4)c(C)n3n2)cc1,–,inactive: 23.4%
COc1ccc(C)cc1NC(=O)CN1CCCC1c1ccc2c(c1)OCCCO2 (stereo unspecified),"inconclusive: 28.2 µM [inhibitor, single point]",–
COc1c(C)cccc1C(=O)Nc1ccc(-c2nc3ccccc3s2)c(Cl)c1,–,inactive: -1.95%
CSc1cccc(NS(=O)(=O)c2ccc3c(c2)CCN3C(C)=O)c1,"inconclusive: 0.501 µM [inhibitor, full curve, poor fit]",–
COC(=O)c1cc2c(n1S(=O)(=O)c1ccc(C)cc1)C(=O)C(=O)c1[nH]cc(C(=O)OCc3ccccc3)c1-2,"inconclusive: 3.98 µM [inhibitor, full curve, poor fit]",–
CC1(C)CC(=O)C=C(c2cccc3c2oc2ccccc23)C1,"inconclusive: 10 µM [inhibitor, partial curve, poor fit]",–
COc1cccc(CN2CCN(C(=O)c3ccc(-c4ccccc4)cc3)CC2)c1OC,"inconclusive: 12.6 µM [inhibitor, partial curve, poor fit]",–
Nc1ccc2nc(-c3ccccc3)sc2c1,active: 8.91 µM,–
Cc1c(C(=O)NCc2cccc(Br)c2)oc2ccc3c(c12)C(=O)CC(C)(C)O3,"inconclusive: 28.2 µM [inhibitor, single point]",–

Compound,Potency,"activity change, negative = inhibition"
CCOC(=O)c1c(-c2ccc(Cl)cc2)csc1NC(=O)CNCc1ccco1,"inconclusive: 11.2 µM [inhibitor, partial curve, poor fit]",–
CCN(CC)CCCNC(=O)c1ccc(Cn2c(SCc3ccccc3)nc3cccnc32)cc1,"inconclusive: 28.2 µM [inhibitor, single point]",–
COc1ccc2oc(C(=O)N3CCN(C(c4ccccc4)c4ccccc4)CC3)c(C)c2c1,active: 5.62 µM,–
COc1ccc([N+](=O)[O-])cc1NC(=O)CSCc1cc(C)cc(C)c1,"inconclusive: 11.2 µM [inhibitor, partial curve, poor fit]",–
O=[N+]([O-])c1ccc(S(=O)(=O)Nc2nnc(C(F)(F)F)s2)cc1,"inconclusive: 10 µM [inhibitor, single point]",–
Cc1ccc2c(c1)c(C)c(C)n2CC(O)Cn1nc(C)c(Br)c1C (stereo unspecified),"inconclusive: 11.2 µM [inhibitor, single point]",–
O=C(c1ccccc1)c1ccc(OCCO)cc1,–,inactive: 36.8%
Cc1ccc(NC(=O)CC2Oc3ccccc3NC2=O)cc1C (stereo unspecified),–,inactive: -14.8%
Cc1cccc(NC(=O)Cn2c(O)c(N=NC(=O)c3ccccc3O)c3ccccc32)c1,–,inactive: -9.33%
Cc1cccc(N2CCN(CCCNC(=O)c3ccc(NC(=O)C4=CSCCO4)cc3)CC2C)c1 (stereo unspecified),"inconclusive: 22.4 µM [inhibitor, single point]",–
COc1ccc(-c2cnnn2-c2ccc(NC(=O)c3ccccc3OC)cc2)cc1,"inconclusive: 28.2 µM [inhibitor, single point]",–
COc1cc(/C=N/N=C2/C(=O)Nc3ccccc32)ccc1O,–,inactive: 85.8%
Cc1ccccc1OCCc1c(C)[nH]c(=S)[nH]c1=O,"inconclusive: 31.6 µM [inhibitor, partial curve, poor fit]",–
Cc1ccccc1NC(=O)CN1CCCC1,–,inactive: 8.65%
CCOc1ccc2c(c1)C(c1ccc(C)cc1)=NNC(c1ccc(OC)cc1)=N2,"inconclusive: 10 µM [inhibitor, partial curve, poor fit]",–
O=C(c1ccc2c3c(cccc13)CC2)C1CCCN(Cc2ccncc2)C1 (stereo unspecified),"inconclusive: 10 µM [inhibitor, partial curve, poor fit]",–
COc1ccccc1NC(=O)c1ccc(COc2ccc(C)c(C)c2)o1,–,inactive: -17.9%
Cc1cccc(N2CCN(S(=O)(=O)c3c(C)nc4scc(C)n4c3=O)CC2)c1C,"inconclusive: 28.2 µM [inhibitor, single point] and inconclusive: 2.82 µM [inhibitor, partial curve, poor fit]",–
CCOC(=O)C1=CCN(S(=O)(=O)c2cccc(Cl)c2)C1c1ccc(Br)cc1 (stereo unspecified),"inconclusive: 28.2 µM [inhibitor, single point]",–
CCn1cc2nc(SCc3cc(C)ccc3C)n(CCc3ccccc3)c(=O)c2n1,"inconclusive: 1.41 µM [inhibitor, full curve, poor fit]",–
Cc1ccc(Oc2nnc(-c3ccccc3)c3ccccc23)cc1,"inconclusive: 11.2 µM [inhibitor, partial curve, poor fit]",–
O=C(OCc1ccccc1)N1CCC2CC1c1c2cccc1N1CCOCC1 (stereo unspecified),"inconclusive: 31.6 µM [inhibitor, single point]",–
